# Results published in patent US11807625B2, “Capsid inhibitors for the prevention of HIV” (Gilead Sciences, Inc., priority 2019, dated 2023).
# Several values for one entry are separate records, joined by “and”; a condition that tells them apart may be missing. Equal values may be shown once. Further values from the same series stand in other lists.
# Experiments:
# SHIV = assay: PrEP efficacy in rhesus repeat intrarectal SHIV challenge model, plasma viral load by qRT-PCR; type: in vivo, rhesus macaques
# Description: The PrEP efficacy a compound of Formula (Ib) in rhesus was evaluated using a repeat intrarectal (IR) challenge model.
# This study also established a correlation between exposure and protection using a single high-dose administration of a compound of Formula (Ib) vs. placebo, followed by multiple weekly IR challenges until infection occured. In this study, multiple challenges overlapped with clinically-relevant drug levels. The supratherapeutic IQs (inhibitory quotients) were assessed to maximize protection and achieve proof-of-concept in case rectal tissue levels were much lower than in plasma. Lower doses of a compound of Formula (Ib), or a pharmaceutically acceptable salt thereof, were assessed to capture more challenges at clinically relevant exposures, reducing the number of IR challenges, and facilitating a drug washout phase. The washout phase lasted for at least 20 weeks. In some embodiments, the washout phase lasted for 20-25 weeks. The washout phase of these studies was important to enable the administered drug concentrations to decline sufficiently below those that were expected to be clinically suppressive in order to confirm that animals that remained aviremic in the study did so because they were protected from infection as opposed to being infected following one or more of the viral challenges but remaining suppressed by prolonged therapeutic concentrations of the long-acting drug in plasma and/or tissue compartments.
# FIG. 3 is a schematic of the study using a compound of Formula (Ib) in adult rhesus macaques (1:1 male/female ratio). Eight animals per group were treated with a single dose of placebo control, 150 mg/kg of a compound of Formula (Ib) (“Compound 1b”) or 300 mg/kg of a compound of Formula (Ib) (“Compound 1b”) on week 0 and allowed to wash out over time. All animals were challenged intrarectally with SHIV weekly beginning on week 1 until detectable viremia or up to a maximum of 15 challenges. SHIV challenge titer was increased over time from 10 TCID50 to 100 TCID50 through week 15 as depicted. Animal SHIV infection rate was assessed by weekly plasma viral load monitoring by qRT-PCR through study week 20. The protective efficacy of a compound of Formula (Ib) (“Compound 1b”) was established by comparing to infection rate observed in the placebo control group using the Cox proportional hazards model analysis.
# Viral infection was scored one week after each SHIV challenge using a quantitative RT-PCR assay. Infected animals were defined as having a viral load >200 copies per mL plasma and the corresponding plasma viral load values are bolded.
# Viral load measurements details: RNA was extracted from plasma using a QIAcube HT and the QIAcube 96 Cador pathogen HT kit (Qiagen). Gag RNA standards were generated using the AmpliCapMax™ T7 High Yield Message Maker Kit (Cell Script) and purified with RNA clean and concentrator kit (Zymo Research). Log dilutions of RNA were included with each assay run. Reverse transcription of both standards and samples was performed using Superscript III VILO (Invitrogen). Quantitative PCR was performed using the Quantstudio 6 Flex system with TaqMan™ Fast Advanced Master Mix (Applied Biosystems). Primer sequences were F-[…] (SEQ ID NO. 1) and R-[…] (SEQ ID NO. 2). The probe sequence was […] (SEQ ID NO. 3), and probe was labeled with FAM and BHQ (Biosearch Technologies). Viral loads were calculated as gag copies per mL.
# [1] = Plasma concentration vs. time profile of Compound Ib in rhesus after single subcutaneous dose (SHIV challenge study); type: in vivo, rhesus macaques; details: 150 mg/kg SC day 0, individual animals
smiles,measurement,setting,value
"CC(C)(C#Cc1ccc(-c2ccc(Cl)c3c(NS(=O)(=O)C4CC4)nn(CC(F)F)c23)c([C@H](Cc2cc(F)cc(F)c2)NC(=O)Cn2nc(C(F)F)c3c2C(F)(F)[C@@H]2C[C@H]32)n1)S(C)(=O)=O [Compound Ib, N—((S)-1-(3-(4-chloro-3-(cyclopropanesulfonamido)-1-(2,2-difluoroethyl)-1H-indazol-7-yl)-6-(3-methyl-3-(methylsulfonyl)but-1-yn-1-yl)pyridin-2-yl)-2-(3,5-difluorophenyl)ethyl)-2-((3b S,4aR)-3-(difluoromethyl)-5,5-difluoro-3b,4,4a,5-tetrahydro-1H-cyclopropa[3,4]cyclopenta[1,2-c]pyrazol-1-yl)acetamide]",Plasma SHIV,"SHIV; 150 mg/kg SC day 0, individual animals, study week 11, intrarectal SHIV dose 100 x TCID50, listed as Compound lb",<200 copies/mL (7×) and 2317 copies/mL
same,Plasma SHIV,"SHIV; 150 mg/kg SC day 0, individual animals, study week 12, intrarectal SHIV dose 100 x TCID50, listed as Compound lb",<200 copies/mL (7×) and 1251253 copies/mL
same,Plasma SHIV,"SHIV; 150 mg/kg SC day 0, individual animals, study week 13, intrarectal SHIV dose 100 x TCID50, listed as Compound lb",<200 copies/mL (5×) and 4495324 copies/mL and 15543 copies/mL and 200 copies/mL
same,Plasma SHIV,"SHIV; 150 mg/kg SC day 0, individual animals, study week 14, intrarectal SHIV dose 100 x TCID50, listed as Compound lb",<200 copies/mL (5×) and 192698 copies/mL and 302527 copies/mL and 14481 copies/mL
same,Plasma SHIV,"SHIV; 150 mg/kg SC day 0, individual animals, study week 15, intrarectal SHIV dose 100 x TCID50, listed as Compound lb",<200 copies/mL (5×) and 1636073 copies/mL and 41252 copies/mL and 436449 copies/mL
same,Plasma SHIV,"SHIV; 150 mg/kg SC day 0, individual animals, study week 16, SHIV dose N/A, listed as Compound lb",43433 copies/mL and <200 copies/mL (3×) and 144532 copies/mL and 37186 copies/mL and 15508 copies/mL and 62513 copies/mL
same,Plasma SHIV,"SHIV; 150 mg/kg SC day 0, individual animals, study week 17, SHIV dose N/A, listed as Compound lb",28104 copies/mL and <200 copies/mL (2×) and 128422 copies/mL and 4020 copies/mL and 5872 copies/mL and 1974 copies/mL and 76901 copies/mL
same,Plasma SHIV,"SHIV; 150 mg/kg SC day 0, individual animals, study week 18, SHIV dose N/A, listed as Compound lb",8535 copies/mL and <200 copies/mL (2×) and 144695 copies/mL and 18625 copies/mL and 13017 copies/mL and 2250 copies/mL and 14905 copies/mL
same,Plasma SHIV,"SHIV; 150 mg/kg SC day 0, individual animals, study week 19, SHIV dose N/A, listed as Compound lb",2197 copies/mL and <200 copies/mL (2×) and 23783 copies/mL and 733 copies/mL and 4607 copies/mL and 1586 copies/mL and 872 copies/mL
same,Plasma SHIV,"SHIV; 300 mg/kg SC day 0, individual animals, study week 11, intrarectal SHIV dose 100 x TCID50",<200 copies/mL
same,Plasma SHIV,"SHIV; 300 mg/kg SC day 0, individual animals, study week 12, intrarectal SHIV dose 100 x TCID50",<200 copies/mL
same,Plasma SHIV,"SHIV; 300 mg/kg SC day 0, individual animals, study week 13, intrarectal SHIV dose 100 x TCID50",<200 copies/mL
same,Plasma SHIV,"SHIV; 300 mg/kg SC day 0, individual animals, study week 14, intrarectal SHIV dose 100 x TCID50",<200 copies/mL
same,Plasma SHIV,"SHIV; 300 mg/kg SC day 0, individual animals, study week 15, intrarectal SHIV dose 100 x TCID50",<200 copies/mL
same,Plasma SHIV,"SHIV; 300 mg/kg SC day 0, individual animals, study week 16, SHIV dose N/A",<200 copies/mL
same,Plasma SHIV,"SHIV; 300 mg/kg SC day 0, individual animals, study week 17, SHIV dose N/A, listed as Compound lb",9063 copies/mL and 13193 copies/mL and <200 copies/mL (5×) and 13143 copies/mL
same,Plasma SHIV,"SHIV; 300 mg/kg SC day 0, individual animals, study week 18, SHIV dose N/A, listed as Compound lb",<200 copies/mL (6×) and 6116 copies/mL and 1633235 copies/mL
same,Plasma SHIV,"SHIV; 300 mg/kg SC day 0, individual animals, study week 19, SHIV dose N/A, listed as Compound lb",<200 copies/mL (3×) and 200 copies/mL (4×) and 123639 copies/mL
same,Plasma Compound Ib Concentrations,"[1]; study week 1, SHIV dose 10 x TCID50",688 nM and 900 nM and 682 nM and 607 nM
same,Plasma Compound Ib Concentrations,"[1]; study week 2, SHIV dose 10 x TCID50",773 nM and 1189 nM and 785 nM and 1097 nM
same,Plasma Compound Ib Concentrations,"[1]; study week 3, SHIV dose 10 x TCID50",197 nM and 498 nM and 269 nM
same,Plasma Compound Ib Concentrations,"[1]; study week 4, SHIV dose 10 x TCID50",68 nM and 153 nM and 237 nM and 181 nM
same,Plasma Compound Ib Concentrations,"[1]; study week 5, SHIV dose 10 x TCID50",95 nM and 181 nM and 87 nM and 203 nM
same,Plasma Compound Ib Concentrations,"[1]; study week 6, SHIV dose 10 x TCID50",94 nM and 239 nM and 84 nM and 202 nM
same,Plasma Compound Ib Concentrations,"[1]; study week 7, SHIV dose 10 x TCID50",65 nM and 104 nM and 58 nM and 136 nM
same,Plasma Compound Ib Concentrations,"[1]; study week 8, SHIV dose 10 x TCID50",126 nM and 152 nM and 171 nM
